Assay results: PubChem BioAssay AID1625 (Sanford-Burnham Center for Chemical Genomics, 2009)
The other results are listed elsewhere or left out. Further columns of the screen follow, without active or inactive calls. The list favours compounds with an active or inconclusive main result.

Test: up-regulation of insulin promoter-GFP reporter – imaging, high-content screening, mouse beta cells (AID 1625);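 note: total cells summed across four imaged fields per well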
Settings: MIN6 insulin promoter-GFP reporter, measured here: cytotoxicity, nuclei count, at 5 µM

Compound	cell count [cells]
O=C(NC1=NCCS1)C1Cc2ccccc2CN1C(=O)c1ccccc1 (stereo unspecified)	1280
CN(C)c1ncnc2c1NC1=C(S2)C(=NCCCC(=O)O)CC(C)(C)C1	415
Cc1sc(NC(=O)CN2CCOCC2)nc1-c1ccc2c(c1)CCN2S(=O)(=O)c1ccccc1	446
CCCN1Cc2cccc(C(=O)Nc3ccc(S(=O)(=O)N4CCCCCC4)cc3)c2C1=O	398
CCCCCCCCCn1c2c(c(=N)c3c1CCC3)CCC2	268
CCN(CC)c1ccc(/C=C/C(=O)c2ccc(Br)cc2)cc1	1160
O=C(C1=C(O)C(=O)N(c2nccs2)C1c1ccccc1)c1cc2ccccc2o1 (stereo unspecified)	1440
COC(=O)c1c(NC(=O)CC2Nc3cc(C)c(C)cc3NC2=O)sc(C)c1C (stereo unspecified)	1380
CCCCn1c(O)c(/C=C/C=C/C=Nc2ccccc2)sc1=S	1180
Cc1nc(N2CCN(c3ccccc3)CC2)c2c3c(sc2n1)CCC3	210
Cc1ccc(Nc2nc3ccccc3nc2Nc2c(C)n(C)n(-c3ccccc3)c2=O)cc1	413
N#C/C(=C/c1ccc(N2CCOCC2)o1)c1ccc(Cl)cc1	1360
Cc1sc2ncnc(NCc3ccco3)c2c1C	423
CC(/C=C/C1(O)C(C)CC(O)CC1(C)C)OC1OC(CO)C(O)C(O)C1O (stereo unspecified)	474
Cc1ccccc1-c1nnc(-c2ccc(Cl)cc2)o1	721
CCCCCCCCCn1ccc(=N)cc1	337
CCCCCCCCCCCCCCCCn1cc[n+](CC(C)=O)c1	379
CCOC(=O)/C(C#N)=C/C=C1\C=Cc2ccccc2N1CC	1190
Cc1oc2ccc(OS(C)(=O)=O)cc2c1C(=O)OC(C)C	369
CC(=O)Nc1ccc(C(=O)N(C)C(C(=O)Nc2ccccc2)c2ccccn2)cc1 (stereo unspecified)	488
Cc1ccc(NC(=O)Cc2nn(C)c(=O)c3ccccc23)cc1F	255
CN(CCOc1ccc(Cl)cc1)c1ccc(S(=O)(=O)N2CCCCC2)cn1	354

Compound	cell count [cells]
CCN1C(=O)/C(=C/C=C2\N(CC)c3cc(S(=O)(=O)N(C)C)ccc3N2c2ccccc2)SC1=S	1010
CCOC(=O)N1CCN(C(=O)c2cc(S(=O)(=O)N3CCCC3)cn2C)CC1	1340
CC(C)OCCCNc1ncnc2c1[nH]c1ccccc12	449
CNC(=O)c1c(NC(=O)c2ccc(S(=O)(=O)N3CCCc4ccccc43)cc2)sc2c1CCN(C)C2	1040
CC(=O)Nc1ccc(Oc2cc(C#N)c(C#N)cc2N2CCCCCC2)cc1	363
CCCCC(=O)Nc1ccc2c(c1)nc1n2CCSC1	809
c1ccc(CN2CCN(c3nc(-c4ccccn4)nc4ccccc34)CC2)cc1	465
CCC(=O)Nc1ccc(C(=O)OCC(=O)c2ccc(C)c([N+](=O)[O-])c2)cc1	1440
Cc1onc(-c2ccccc2Cl)c1C(=O)N(C)C1CCCCC1	362
Cc1cc(Cl)n2c(nc3ccccc32)c1C#N	314
O=[N+]([O-])c1ccc(/C=N/N=C/c2ccc([N+](=O)[O-])o2)o1	369
O=Cc1cc2ccccc2nc1SCc1ccc(Cl)c(Cl)c1	442
COc1cc([C@@H]2[C@H]3CN(C)CC=C3C(C#N)=C(N)C2(C#N)C#N)cc2c1OCO2	1320
CN1C2CCC1/C(=C/c1cccn1C)C(=O)/C2=C\c1cccn1C	1080
Nc1c(C(=O)c2ccccc2)sc2nsc(SCCN3CCCC3)c12	801
Cc1cc(/C=C2/SC(=S)N(c3ccc([N+](=O)[O-])cc3)C2=O)c(C)n1-c1cccnc1	276
Cc1ccc(-n2c3c(c(=O)[nH]c2=O)C(C(F)(F)F)(C(F)(F)F)NC(=O)N3)cc1	1550
CCS(=O)(=O)n1nc(-c2ccccc2)cc1N	365
Cc1cccc(Cn2c(SCCN3CCCCC3)nc3c2c(=O)[nH]c(=O)n3C)c1	495
CCOC(=O)c1nnn(-c2nonc2N)c1-c1ccc(OCC)cc1	1950
Cc1ccc(N2C(=O)c3cccc4c(N5CCN(C)CC5)ccc(c34)C2=O)c2cccnc12	1340
CC(C)OC(=O)c1c2c(n3ccccc13)C(=O)c1ccccc1C2=O	1450

Compound	cell count [cells]
CCOC(=O)c1sc2nc(CC(=O)OC)nc(NCc3ccc(F)cc3)c2c1C	451
CN(C)c1ccc(/C=C2\SC(=S)N(Nc3ncc(C(F)(F)F)cc3Cl)C2=O)cc1	1510
CCOc1ccccc1C(=O)N1CCN=C1SC	437
O=C(N/N=C/c1ccccc1O)c1cccc(C(F)(F)F)c1	469
CCCOc1ccc(-c2nn(-c3ccccc3)cc2/C=C2\SC(=S)N(C3CCS(=O)(=O)C3)C2=O)cc1 (stereo unspecified)	961
Cc1cc(NC(=S)N(Cc2ccc(Br)cc2)Cc2ccc(C(=O)O)cc2)ccc1Cl	1190
Cc1cc(C)c(C(=O)O)c(CC(C)(C)C(=O)O)c1	1360
CN(/N=C\c1ccc(O)c(O)c1)c1nc(-c2ccccc2)cc(-c2ccccc2)n1	324
O=C(CSc1nnc(Cn2nnc3ccccc32)o1)N(Cc1ccc(Cl)cc1)c1ccccc1	446
Cc1ccc(OCCN2CCN(C(=O)CCC(=O)Nc3nnc(C(C)C)s3)CC2)cc1	208
Cc1cc(=O)oc2cc(OCC(=O)OCC(=O)NC3CC3)ccc12	1360
Nc1c(C(=O)O)sc2nc(-c3ccccc3)cc(-c3ccccc3)c12	1410
CCCCCCc1cc2cc(-c3nnc(-c4ccccc4OC)o3)c(=O)oc2cc1O	699
O=C1N=C2N(CCN3CCCCC3)c3ccccc3N2/C1=C\c1ccc([N+](=O)[O-])o1	410
CC(=O)c1cc(F)c(N2CCN(C(=O)COc3ccc(F)cc3)CC2)cc1C	458
COc1ccc(-c2c[n+]3c(n2-c2ccccc2)SCC3)cc1	457
Oc1c(/C=C/C=C/C=Nc2ccccc2)sc(=S)n1Cc1ccccc1	1090
COc1ccccc1NS(=O)(=O)c1cc([N+](=O)[O-])ccc1N/N=C/c1sc(N2CCOCC2)nc1-c1ccccc1	1440
CSC1=NCCN1C(=O)c1c(F)cccc1Cl	454
Clc1cccc(Cl)c1NC1=NCCC1	457
CCN(C(=O)CSc1nc2cc(C(=O)OC)ccc2c(=O)n1Cc1ccco1)c1cccc(C)c1	1440
CCCN1C=CC(=CC=C(C#N)C#N)C=C1	1390

Compound	cell count [cells]
CCCCNc1ccc2c3c(cccc13)C(=O)N(CCCC)C2=O	1020
O=C(Nc1ccon1)c1cccc(S(=O)(=O)N2CCCCC2)c1	1400
CCOC(=O)c1nn(-c2ccccc2C)c2nc(Nc3ccccc3)cc(=O)n12	474
COc1cc(Cl)c(C)cc1NC(=O)CN(C)Cc1cccc(OC)c1OC	1010
CC(C)OC(=O)c1cc(NC(=S)Nc2ccc([N+](=O)[O-])cc2)cc(C(=O)OC(C)C)c1	304
CCOC(=O)Cc1csc(NC(=O)c2sc3nc4c(C)cc(C)cc4cc3c2N)n1	1820
CC(=O)c1cccc(N=c2scc(-c3ccc(S(=O)(=O)N4CCOCC4)cc3)n2CCO)c1	328
CCOCCCNC(=O)C(NC(=O)c1ccc(=O)[nH]c1)c1ccc(Cl)cc1 (stereo unspecified)	241
CC[n+]1ccccc1/C=C/c1ccc(N(C)C)cc1	239
O=C(CCl)Nc1cc(SCC(O)CO)cc([N+](=O)[O-])c1 (stereo unspecified)	439
COc1cccc(-c2csc(N3CCN(C(=O)NC45CC6CC(CC(C6)C4)C5)CC3)n2)c1	386
Oc1c(C=NCc2ccc(F)cc2)[nH]c2ccc(Br)c(Cl)c12	869
COc1ccccc1N/C(N)=N/c1nc(CSc2ccc(C)cc2)cc(=O)[nH]1	438
C[n+]1cc(C(=O)N2CCCCC2)ccc1/C=C/c1c[nH]c2ccccc12	1480
CCn1c(-c2ccc(N(C)C)cc2)nc2ccccc21	261
COc1ccc(C(CCN2CCCC(C)C2)c2c(OC)cc(OC)c3c(-c4ccccc4)cc(=O)oc23)cc1 (stereo unspecified)	437
C=CCN1C(=O)c2cccc3c(N4CCCCC4)ccc(c23)C1=O	1230
O=C1CCCCc2sc(Br)c([N+](=O)[O-])c2N1	492
CCOC(=O)N1CCN(/C=C(\C#N)c2nc3ccccc3s2)CC1	980
CCOC(=O)c1cnc(Nc2nc3ccccc3o2)nc1CSC(=S)N1CCCCC1	309
CCCCCc1cc(=O)oc2c(C(CCN(CC)CC)c3ccc(N(C)C)cc3)c(OC)cc(OC)c12 (stereo unspecified)	323
C=CCNC(=O)c1c2c(nc3ccccc13)-c1ccccc1CC2	1580

Compound	cell count [cells]
CCCCCCCCCCn1c2c(c(=N)c3c1CCC3)CCC2	116
Cc1ccc(-c2cc(-c3ccco3)c3c(N)c(C(=O)NN)oc3n2)cc1	1080
COc1cccc(C(=O)c2sc(NC(C)C)nc2N)c1	368
CCn1c(SCC(=O)c2c[nH]c3ccccc23)nnc1-c1cccs1	370
CCCCNC(=O)C1CC(=O)N(C2CCCCC2)C1 (stereo unspecified)	1520
COc1ccc(-n2c(-c3ccc(Br)cc3)c[n+]3c2CCCCC3)cc1	368
O=C(CSc1nc2ccc(Cl)cc2o1)NCc1ccc2c(c1)OCO2	915
CCCCCCCCCCCCCCCC[n+]1ccc(/C=N/O)cc1	330
CCOc1ccc(NC(=O)Cn2c(=O)oc3ccccc32)cc1	766
Oc1ccccc1/C=N/Nc1nc2ccccc2o1	405
Cc1cc(/C=C2\Sc3ccccc3N2C)cc(C)[n+]1CC1CCCO1 (stereo unspecified)	393
Cc1cc(NNC(=O)Nc2cccc(Cl)c2)nc2c1c(C)nn2C	392
Cc1c(-c2ccc(O)cc2)nc2nc(-c3ccccc3)c(-c3ccccc3)nn12	985
CC(C)CNC(=O)CSc1nnc(-c2cccc(S(=O)(=O)N3CCCCC3)c2)o1	1140
Cc1noc(C)c1CS(=O)(=O)c1ccc(Br)cc1	1660
Cc1cc(C2C(C#N)=C(N)Oc3n[nH]c(C)c32)c(C)s1 (stereo unspecified)	1520
Cn1nc([N+](=O)[O-])nc1Sc1nnc(-c2ccccc2)o1	392
Cc1sc2cc3c(c(C(=O)c4ccccc4)[n+]2c1C)-c1cccc2cccc-3c12	265
